The text below walks through data of PubChem BioAssay (NCI).

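Briefly, cells in 96-well plates were exposed to five compound concentrations for 48 h, and endpoints were estimated by linear interpolation. GI50 = concentration required for 50% inhibition of growth. TGI denotes the concentration required for complete inhibition of growth.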 A value given as a limit tells only on which side of the number the result lay.

For this assay, the system named is NCI-H322M lung. Description: DTP human tumour cell line panel, 48 h.
Regarding `CCOc1ccccc1[C@H]1C(C(=O)c2ccc(Cl)cc2)C2(N[C@@H]1c1ccccc1)C(=O)Nc1ccccc12` (stereo partly drawn), the GI50 is 8.61 µM and the TGI is > 39.8 µM.
Turning to `COC(=O)c1ccc(-n2cc(CCCN(CCNc3ccnc4cc(Cl)ccc34)C(=O)CCC(=O)O[C@@H]3O[C@@H]4OC5(C)CC[C@H]6[C@H](C)CC[C@@H]([C@H]3C)[C@@]46OO5)nn2)cc1`, the GI50 is > 10.8 µM and the TGI was > 10.8 µM.
On to `CN(C)c1ccnc(CNCCSC2(c3ccc(C(F)(F)F)cc3)c3ccccc3C=Cc3ccccc32)c1`, for which the GI50 is 1.69 µM and the total growth inhibition concentration (TGI) was determined as 16.1 µM.
Taken in the same sequence, the figures for `COc1ccc2[nH]c(=O)c(CSc3nccc(-c4ccc(OC)c(OC)c4)n3)cc2c1` were 12.8 µM and 26.3 µM.
